{"source": "paper PMC4336329", "about": "(PLoS ONE, 2015)", "note": "In all, about 310,000 compounds went through this assay and about 14,000 (4.5%) showed an effect of 50% or more. The effect is printed as a negative number. Some of the results follow.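 Further: peak tail current of the secondary pulse compared with the same well before compound.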"}
{"target": "human ether-à-go-go-related gene (hERG) potassium channel (human, UniProt Q12809)", "sequence (Q12809 whole entry, looked up)": "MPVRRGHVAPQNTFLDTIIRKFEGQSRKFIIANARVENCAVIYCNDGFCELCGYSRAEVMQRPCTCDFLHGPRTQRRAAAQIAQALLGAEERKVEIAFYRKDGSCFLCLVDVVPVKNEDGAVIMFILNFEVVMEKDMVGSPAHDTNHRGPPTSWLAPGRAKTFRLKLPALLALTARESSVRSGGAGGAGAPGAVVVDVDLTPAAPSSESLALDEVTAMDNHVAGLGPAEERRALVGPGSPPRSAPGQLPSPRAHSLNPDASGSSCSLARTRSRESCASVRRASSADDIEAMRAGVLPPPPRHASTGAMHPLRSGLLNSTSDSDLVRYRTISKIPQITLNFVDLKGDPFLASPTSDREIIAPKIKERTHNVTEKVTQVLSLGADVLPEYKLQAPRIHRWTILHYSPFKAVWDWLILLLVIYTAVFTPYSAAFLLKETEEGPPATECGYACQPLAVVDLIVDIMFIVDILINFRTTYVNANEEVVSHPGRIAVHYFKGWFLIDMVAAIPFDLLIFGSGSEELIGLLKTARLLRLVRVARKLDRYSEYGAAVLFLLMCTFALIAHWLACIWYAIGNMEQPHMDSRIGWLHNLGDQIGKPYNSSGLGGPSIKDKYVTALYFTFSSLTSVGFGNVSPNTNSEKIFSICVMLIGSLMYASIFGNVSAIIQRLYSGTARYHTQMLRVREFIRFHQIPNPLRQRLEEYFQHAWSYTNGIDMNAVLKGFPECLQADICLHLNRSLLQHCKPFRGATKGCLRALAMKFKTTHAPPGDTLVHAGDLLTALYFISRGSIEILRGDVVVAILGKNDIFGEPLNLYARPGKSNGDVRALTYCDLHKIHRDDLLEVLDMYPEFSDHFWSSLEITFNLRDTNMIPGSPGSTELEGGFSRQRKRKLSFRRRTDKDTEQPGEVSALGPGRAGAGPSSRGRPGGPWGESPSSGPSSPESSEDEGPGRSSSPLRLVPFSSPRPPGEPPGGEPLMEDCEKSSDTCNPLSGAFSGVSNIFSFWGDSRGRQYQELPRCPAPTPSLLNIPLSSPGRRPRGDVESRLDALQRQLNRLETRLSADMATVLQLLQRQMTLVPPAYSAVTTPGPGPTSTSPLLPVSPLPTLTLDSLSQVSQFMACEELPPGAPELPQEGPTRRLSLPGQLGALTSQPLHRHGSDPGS", "test": "primary screen, population patch clamp on CHO cells stably expressing hERG", "units": {"hERG current change (%, negative = inhibition) at 10uM": "%"}}
{"smiles": "CCn1ncc2c(OCc3ccc(C#N)cc3)cc(C)nc21", "hERG current change (%, negative = inhibition) at 10uM": -34.2}
{"smiles": "Cc1ccc(C(=O)NCC#N)cc1", "hERG current change (%, negative = inhibition) at 10uM": 5.72}
{"smiles": "Cc1ccc(C(=O)CCC(=O)NC2CCCC(C)C2C)cc1", "note": "(stereo not drawn)", "hERG current change (%, negative = inhibition) at 10uM": 14.3}
{"smiles": "Cc1cccc(-n2cnc3c(c2=O)c2nc4ccccc4nc2n3Cc2ccco2)c1", "hERG current change (%, negative = inhibition) at 10uM": -63.7}
{"smiles": "CC(Sc1ccccc1)C(=O)NN=C1CCCCCCC1", "note": "(stereo not drawn)", "hERG current change (%, negative = inhibition) at 10uM": 2.12}
{"smiles": "CCC(C)[C@@H](N)C(=O)N/N=C/c1ccc2ncccc2c1.Cl", "note": "(stereo partly drawn)", "hERG current change (%, negative = inhibition) at 10uM": 9.23}
{"smiles": "CN(C)C(C)(C)C#CCCCCC#CC(C)(C)N(C)C", "hERG current change (%, negative = inhibition) at 10uM": 16.5}
{"smiles": "Cc1cc(C)c(C(=O)NCC(=O)c2ccccc2)c(C)c1", "hERG current change (%, negative = inhibition) at 10uM": 11.1}
{"smiles": "Cc1c(NC(=O)CSc2nc3ccc(Cl)cc3[nH]2)c(=O)n(-c2ccccc2)n1C", "hERG current change (%, negative = inhibition) at 10uM": 4.9}
{"smiles": "CCOc1ccc(C(=O)NC2CCN(C(=O)NCc3ccccc3)CC2)cc1", "hERG current change (%, negative = inhibition) at 10uM": 1.82}
{"smiles": "Cc1ccc2c(Cl)cc(Cl)c(OCC(=O)O)c2n1", "hERG current change (%, negative = inhibition) at 10uM": 11.9}
{"smiles": "O=C(Nc1ccc(S(=O)(=O)N2CCOCC2)cc1)c1cccs1", "hERG current change (%, negative = inhibition) at 10uM": 6.03}
{"smiles": "CC(C)(C)NC(=O)C(=O)NNC(=O)c1ccc(C(C)(C)C)cc1", "hERG current change (%, negative = inhibition) at 10uM": -0.346}
{"smiles": "O=C(CN1C(=O)NC2(CCCCCCC2)C1=O)Nc1ccc(Cl)cc1", "hERG current change (%, negative = inhibition) at 10uM": 4}
{"smiles": "Cc1ccc(C)c(NC(=O)COC(=O)COc2cccc3c2OC(C)(C)C3)c1", "hERG current change (%, negative = inhibition) at 10uM": 11.5}
{"smiles": "O=C(c1cn(CC2CCCCC2)nn1)N1CCN(c2ccc(F)cc2)CC1", "hERG current change (%, negative = inhibition) at 10uM": -52.5}
{"smiles": "COc1ccc(NC(=O)CSCC(=O)Nc2ccccc2N2CCCCC2)cc1", "hERG current change (%, negative = inhibition) at 10uM": 9.38}
{"smiles": "Cc1ccc(C(=O)CCC(=O)NCc2ccc(Cl)cc2)cc1", "hERG current change (%, negative = inhibition) at 10uM": -8.52}
{"smiles": "COc1cccc(C2C(C(N)=O)=C(C)Nc3nc(CCCO)nn32)c1OC", "note": "(stereo not drawn)", "hERG current change (%, negative = inhibition) at 10uM": 4.7}
{"smiles": "CCc1ccc(NC(=O)C(CC)Sc2nc3ccsc3c(=O)n2CCC(=O)O)cc1", "note": "(stereo not drawn)", "hERG current change (%, negative = inhibition) at 10uM": 17.5}
{"smiles": "CCOC(=O)CSc1nc2c(cnn2-c2ccc(Cl)cc2)c(=O)[nH]1", "hERG current change (%, negative = inhibition) at 10uM": 21.8}
{"smiles": "c1ccc(OCCSc2nnnn2C2CCCCC2)cc1", "hERG current change (%, negative = inhibition) at 10uM": -3.5}
{"smiles": "Fc1ccc(-c2[nH]ncc2CN2CCN(c3ccc(F)cc3)CC2)cc1", "hERG current change (%, negative = inhibition) at 10uM": -44.5}
{"smiles": "Cc1nc2sc(C(c3ccc(C(C)C)cc3)N3CCN(CCO)CC3)c(O)n2n1", "note": "(stereo not drawn)", "hERG current change (%, negative = inhibition) at 10uM": 9.72}
{"smiles": "COc1ccc2c(=O)c(-c3ccc4c(c3)OCO4)coc2c1", "hERG current change (%, negative = inhibition) at 10uM": 5.86}
{"smiles": "COc1cc(-c2n[nH]c(=S)n2-c2cccc(C(F)(F)F)c2)cc(OC)c1OC", "hERG current change (%, negative = inhibition) at 10uM": 6.33}
{"smiles": "O=C(C1COc2ccccc2O1)N1CCN(c2nc3ccc([N+](=O)[O-])cc3s2)CC1", "note": "(stereo not drawn)", "hERG current change (%, negative = inhibition) at 10uM": -29.8}
{"smiles": "C/C(=N\\NC(=O)CSCc1ccc([N+](=O)[O-])cc1)c1ccccc1O", "hERG current change (%, negative = inhibition) at 10uM": -2.52}
{"smiles": "Cc1[nH]c2ccc(-c3n[nH]c(=S)n3C)cc2c1C", "hERG current change (%, negative = inhibition) at 10uM": -30.3}
{"smiles": "Cc1cccc(S(=O)Cc2ccc(C(=O)N3CCN(C(=O)c4ccco4)CC3)o2)c1", "note": "(stereo not drawn)", "hERG current change (%, negative = inhibition) at 10uM": -10.2}
{"smiles": "CN(C)c1ccc(CNc2ncc(Br)cc2Br)cc1", "hERG current change (%, negative = inhibition) at 10uM": -3.62}
{"smiles": "CN(C(=O)COC(=O)c1cc[n+]([O-])cc1)c1ccccc1", "hERG current change (%, negative = inhibition) at 10uM": 16.9}
{"smiles": "CN(CC(=O)NCCc1ccc(Cl)cc1)S(=O)(=O)c1cccs1", "hERG current change (%, negative = inhibition) at 10uM": -39}
{"smiles": "CSc1ccc(Cl)c(C(=O)OCC(=O)N2CC(C)OC(C)C2)c1", "note": "(stereo not drawn)", "hERG current change (%, negative = inhibition) at 10uM": 3.41}
{"smiles": "COc1ccc(OC)c(Nc2ccc(Nc3cc(OC)ccc3OC)nn2)c1", "hERG current change (%, negative = inhibition) at 10uM": -2.07}
{"smiles": "CCOC(=O)C1=C(C)Nc2nc(C)nn2C1c1ccc(C)cc1", "note": "(stereo not drawn)", "hERG current change (%, negative = inhibition) at 10uM": 11.8}
{"smiles": "O=c1cccc2n1CC1CC2CN(S(=O)(=O)c2ccccc2)C1", "note": "(stereo not drawn)", "hERG current change (%, negative = inhibition) at 10uM": -3.59}
{"smiles": "CCOc1cc(/C=C2\\CCCC(C(=O)C(F)(F)F)=C2O)ccc1O", "hERG current change (%, negative = inhibition) at 10uM": -0.748}
{"smiles": "CCCC(=O)OCC(=O)Nc1ccc2[nH]c(=O)[nH]c2c1", "hERG current change (%, negative = inhibition) at 10uM": 20.2}
{"smiles": "COc1ccc(C2=NN(C(C)=O)CC2c2cccc([N+](=O)[O-])c2)cc1", "note": "(stereo not drawn)", "hERG current change (%, negative = inhibition) at 10uM": -44.3}
{"smiles": "Cc1ccc(C(C)C)c(OCCOCCN2CCNCC2)c1.O=C(O)C(=O)O", "hERG current change (%, negative = inhibition) at 10uM": -3.95}
{"smiles": "CNc1nc(=S)[nH]c2ccccc12", "hERG current change (%, negative = inhibition) at 10uM": 12.6}
{"smiles": "COc1ccc(-c2cc(C(F)(F)F)n3ncc(C(=O)N4CCCCC4c4cccnc4)c3n2)cc1", "note": "(stereo not drawn)", "hERG current change (%, negative = inhibition) at 10uM": -15.7}
{"smiles": "O=C(NC(=S)Nc1cc([N+](=O)[O-])ccc1O)c1ccc2c(c1)OCO2", "hERG current change (%, negative = inhibition) at 10uM": 4.41}
{"smiles": "COc1ccc(CNC(=O)c2c(C)cc(=O)oc2C)cc1", "hERG current change (%, negative = inhibition) at 10uM": -26.8}
{"smiles": "CCN1CCN(c2ccc(S(=O)(=O)N3CCOCC3)cc2NC(=O)c2ccc(Cl)cc2Cl)CC1", "hERG current change (%, negative = inhibition) at 10uM": -38.4}
{"smiles": "C=CCOC(=O)C1=C(C)NC(=S)NC1c1cccs1", "note": "(stereo not drawn)", "hERG current change (%, negative = inhibition) at 10uM": -5.26}
{"smiles": "CC12C(=O)N(c3ccc(OC(=O)c4ccco4)cc3)C(=O)C1C1c3ccccc3C2c2ccccc21", "note": "(stereo not drawn)", "hERG current change (%, negative = inhibition) at 10uM": 12.2}
{"smiles": "COc1cc(C(=S)N2CCN(C)CC2)ccc1OCC(=O)NCc1ccccc1", "hERG current change (%, negative = inhibition) at 10uM": 27}
{"smiles": "CS(=O)(=O)N(CC(=O)N1CCN(c2ccccc2F)CC1)c1cc(C(F)(F)F)ccc1Cl", "hERG current change (%, negative = inhibition) at 10uM": 7.95}
{"smiles": "Cc1cccc(NC(=O)CSc2nnc(CNC(=O)c3ccc(S(=O)(=O)N(C)C)cc3)n2-c2ccccc2)c1", "hERG current change (%, negative = inhibition) at 10uM": -20.1}
{"smiles": "CC(C)(C)c1ccccc1OCC(=O)NCCCn1ccnc1", "hERG current change (%, negative = inhibition) at 10uM": -25.1}
{"smiles": "CCc1nnc(NC(=O)c2cccc(NC(=O)C(C)C)c2)s1", "hERG current change (%, negative = inhibition) at 10uM": 9.98}
{"smiles": "Cc1ccc(C(=O)Nc2nc(-c3ccccc3)c(-c3ccccc3)o2)cc1", "hERG current change (%, negative = inhibition) at 10uM": -14.1}
{"smiles": "Clc1ccc(-c2noc(CN3CCOCC3)n2)cc1", "hERG current change (%, negative = inhibition) at 10uM": 4.83}
{"smiles": "Cc1ccc(N(CC(=O)NCc2ccco2)C(=O)CCC(=O)Nc2nccs2)cc1", "hERG current change (%, negative = inhibition) at 10uM": -1.5}
{"smiles": "O=CN1CCCN(Cc2nc(-c3cccc(Cl)c3)no2)CC1", "hERG current change (%, negative = inhibition) at 10uM": -13.3}
